# Data: the supplement of paper PMC11417369
# ± gives the standard deviation of the averaged measurements. The list shows a part of the results.
# Test system: PfAP2-LT AP2 domain (GST-tagged)
# Test: gcPBM binding intensity (ln(normalized median fluorescence intensity)); higher = stronger DNA binding
# Procedure, shortened: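 Binding of GST-tagged P. falciparum DNA-binding domains, expressed in E. coli and used at about 25 μg on average, was carried out for 1 h in 1× PBS containing 1% milk, 0.2 mg/ml BSA, 0.5% salmon testes DNA and 0.03% Triton X-100. The target was an Agilent 4 × 180k array of primer-extended double-stranded 36-bp intergenic genomic probes plus negative controls, read with Alexa488 anti-GST antibody at 488 nm. Binding intensity is the highest Masliner-normalised natural-log median intensity across replicate spots of either probe orientation.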
row,Sequence,gcPBM binding intensity (ln)
1,TTTTTTTTTTTTTCTTCACACACAGTACTACTATTT [CACACA_site8759],9.13 ± 0.5
2,GGTATATGCATAAAGAGTACGTAACTTCTTTTTGTT [XGTACX_site6344],8.91 ± 0.44
3,ATAAGATGATTAATTACACACTTTATAGGATATTTA [CACACA_site1711],8.61 ± 0.38
4,AAATGTGTAAATATAATTAGTTTCACAAAACAAATA [GTGCAC_negctrl_site543],8.73 ± 0.51
5,TATTTATTATTATGTACACACTATATTAAAACATAA [CACACA_site4549],8.56 ± 0.42
6,TATGTGAATCCTAAGTGTACACATCTTACATATATA [XGTACX_site2506],9.01 ± 0.38
7,AGTATACGCAGACACACACACACATATATATATATA [CACACA_site1735],10.22 ± 0.042
8,TTATATTTATAAAGGTGTACCTTAAAATGATTTTAC [XGTACX_site3774],8.32 ± 0.47
9,AAAATTAAATAAAAATGTACAGAAATATTATATGAA [XGTACX_site5695],8.69 ± 0.55
10,ATATATTATATTAATTGTACATAAAAAAGAGAAAAA [XGTACX_site3366],8.6 ± 0.35
11,AGAAAAATTACAAAATGTACATAATGTGTTATTAAT [XGTACX_site7877],8.82 ± 0.52
12,ATGTATAAACAAAAGGGTACATATATATATATATAT [XGTACX_site2087],9.88 ± 0.18
13,AATATATAAATCAATAGTACATATATATATATATAT [XGTACX_site3898],9.535 ± 0.078
14,AATAAAAAACATGAAAGTACTTTAAAAAAGGTAATA [XGTACX_site1897],8.97 ± 0.64
15,ATTAAGTACTAAAAAGTGCAGTTCGGTACTGTGCTT [GTGCAC_site9755],8.85 ± 0.39
16,ATTAAATATGAGGGAACACACACATGATATATAAAT [CACACA_site8755],9.41 ± 0.41
17,TTATATAAAGAATGTACACACAGAAATGCACCCACA [CACACA_site2282],9.39 ± 0.2
18,CCAAAAAATATATGTAGTACTACATTATTAAATATG [XGTACX_site5128],8.71 ± 0.35
19,AAAAAAAACACGCGCACACACACACCCACAGACACA [CACACA_site5253],10.2 ± 0.14
20,TATTTTTTAAAAAATTATAAATAAAATTATATTACG [CACACA_negctrl_site324],8.1 ± 0.39
21,TATATATATAAATACACACACACACCCCAAAGCGTA [CACACA_site4211],9.86 ± 0.24
22,TATAATATATTCACTCGTACATATTTAATAATATCT [XGTACX_site6209],8.65 ± 0.52

row,Sequence,gcPBM binding intensity (ln)
1,ACAGTATATTAAAAAATACACACGTATTATATCTAC [CACACA_site2640],8.95 ± 0.38
2,ATACCTGTTGTGTTACGTACATAATTTTAATGTTTG [XGTACX_site8181],9.04 ± 0.39
3,AAATTCAATTTGCGCTGTACATGAAGATATAAATTT [XGTACX_site4844],8.85 ± 0.42
4,ATAAATTTTTTATGAACACACAAATACCCACGCTCA [CACACA_site2659],9.04 ± 0.33
5,TTTTAATTAAATAAATGTACTCATTCTATTATTTAT [XGTACX_site3032],8.54 ± 0.43
6,TATTACACATATTATGTGCACATATATAATCAATAT,8.94 ± 0.4
7,ATTTTATTTTTGTGCACACTGATAAATTGAAAAGAG [CACACA_site2948],8.82 ± 0.4
8,AAAAAAAAAAATTAAAGTACTAATTAAAATTATATG [XGTACX_site5289],8.27 ± 0.55
9,TATATATATATAATATGTACATATATTAAGCATTTT [XGTACX_site4470],8.81 ± 0.29
10,ATGTAGGTTAATTATTGTACGTAGGGGGTGTATATT [XGTACX_site3973],9.7 ± 0.18
11,TTCAGAGAATAAAAATGTACATATAATATTTTAAAA [XGTACX_site577],8.48 ± 0.5
12,CTCTTGTCATTTTGCACACACACATGTATAGGTTAT [CACACA_site3057],9.85 ± 0.35
13,TAAATTTGTGGGATTTCACACAGGTTTATTTACATT [CACACA_site5455],8.7 ± 0.42
14,GTGTTAACTATTATGAGTACTTATGTATTAATTCAT [XGTACX_site7767],8.77 ± 0.37
15,TTGCTTATTAAATGGGGTACATTATATATATATATA [XGTACX_site2515],8.99 ± 0.42
16,TTTCTAATTTATATCACACACATATATTTATAGTAA [CACACA_site6280],8.83 ± 0.48
17,GTTTACTAATATTGCACACGAATATGAAAAAGAGAA [CACACA_site2897],9.03 ± 0.42
18,AGAGTATATAAAGTAACACACAATAAAATAAAATAA [CACACA_site2328],9.18 ± 0.49
19,CATATAGTATAAATTTGTACATAAATATATATATAT [XGTACX_site7477],8.93 ± 0.3
20,ATAATATCTTCTTTTTTTTTTTTTTTTTTTTTTTTT [CACACA_negctrl_site1005],8.62 ± 0.28
21,AAATGATGCATTTGTCATTAAAATTGTGAAATATTA [CACACA_negctrl_site231],8.56 ± 0.47
22,AAAAAAAAAAAAAAAAGTACATATATATATAATTAT [XGTACX_site7836],8.75 ± 0.47

row,Sequence,gcPBM binding intensity (ln)
1,TATAATAAAATATGTACACACATACAGACATATATA [CACACA_site6693],9.11 ± 0.38
2,TAATTAAGATGATAAAAATTGAAAAAACAATTTTAA [CACACA_negctrl_site658],8.24 ± 0.33
3,ATATATATATAATGTGTACACACATATGTATTTATA [CACACA_site8170],9.15 ± 0.33
4,CTGTTTTACTTTAGTAGTACAATAAAAATATAAAAA [XGTACX_site2934],8.41 ± 0.35
5,TATTACCCATATTATACACACATATATTATATATAT [CACACA_site1567],9.22 ± 0.44
6,AAAAAAAAAAAACATACACACAAATATATACATACA [CACACA_site4011],9.15 ± 0.33
7,TAATTTTATATTAAAAGTACATAATAAAAACTATAA [XGTACX_site8779],8.32 ± 0.43
8,AAGAAATATATATATATATATATATATATATATGTA [TGCATGCA_negctrl_site442],9.53 ± 0.38
9,AGAGCATAATAAAACACACACATACATACAGATATA [CACACA_site4671],9.58 ± 0.34
10,TTTAAAAACAAATATTGTACAAATTAAAATATATCA [XGTACX_site7220],8.54 ± 0.4
11,CACTAATATATATACAGTACATAATAAAGTATATAA [XGTACX_site6875],8.81 ± 0.38
12,TGATGATATAAAAACACACACATATAATATAATACT [CACACA_site1208],9.4 ± 0.4
13,AGTTATATGGTTAATACACACAACAAATGTTTCTTC [CACACA_site6642],9.06 ± 0.3
14,GTGTGATGGTACAATATACACACTTAAAAAAAAAAA [CACACA_site8769],8.97 ± 0.49
15,AAAAAATATATTTGCACACTCAAAAAAAAAAAAAAA [CACACA_site859],8.73 ± 0.47
16,ATACATAAAATTAAAACACACATTTTATTAAATACG [CACACA_site2167],8.76 ± 0.39
17,TAAGAAATAAATAGTACACACATAGACACACGCACA [CACACA_site6821],9.73 ± 0.23
18,AATATAACTTAGAATTGTACATAAAAAAAAATATAT [XGTACX_site3313],8.77 ± 0.48
19,TACCTAATATGTTATACACACATTATAAGTACATAT [CACACA_site7206],9.12 ± 0.28
20,TATAAAATACATTTATAATATATATATATATTTTTT [TGCATGCA_negctrl_site435],8.45 ± 0.35
21,ATATGAAATATATAAATATGTTTATATATATATATA [GTGCAC_negctrl_site94],8.96 ± 0.38
22,AAACAAAATATGGTTCATGAGCAAAAGTTTATTTTG [XGTACX_negctrl_site531],8.73 ± 0.48

row,Sequence,gcPBM binding intensity (ln)
1,ATTTATTTATACAAAGTGCAATATTTTGTTAAAGTC [GTGCAC_site9618],8.55 ± 0.38
2,AATGTAAAATATAAATGTACATATATATATATATAT [XGTACX_site5071],9.61 ± 0.057
3,CTCTTTTCTTATAATACACACAGTAATATATATATA [CACACA_site1520],8.88 ± 0.38
4,ATACATATATATATATGTACACATAAACATGAGTGA [XGTACX_site3200],9.1 ± 0.49
5,TAATGGAAACCATTTATTTTCTGCAATATATTTTTT [CACACA_negctrl_site1653],8.34 ± 0.46
6,TTTACATCAACCTTTTCACACATTCATATACAGATA [CACACA_site6152],8.78 ± 0.42
7,TGTGTTTATACGTTTTGTACATATTTTTATTTTGTA [XGTACX_site6425],8.97 ± 0.4
8,TCATTAAAGGAAAAATGTACGTATAAATAAATATAT [XGTACX_site2587],8.72 ± 0.4
9,TTCAAAAAATAAAATAATAATATATATATAAATATA [XGTACX_negctrl_site84],8.32 ± 0.55
10,TTTTTTATATTTAAACTTCACATGGTTTTCATTTAT [XGTACX_negctrl_site291],8.8 ± 0.5
11,TTTTTTTTACATTCTGCACACAATTTATTTTTTTTT [CACACA_site36],9.16 ± 0.6
12,AAATCAAACTTTGGTGTGCACAAATATATACATATA [GTGCAC_site9986],9.29 ± 0.47
13,AAAAATGAGTGACACACACACATATAAATATAAATA [CACACA_site7115],9.44 ± 0.43
14,TATAAAAAAAAAAAAAGTACTAACTTAAAACAATTT [XGTACX_site7969],8.46 ± 0.42
15,TTGATAATTATATAATGTACTCATTATAATATGATG [XGTACX_site7813],8.55 ± 0.43
16,TGATAAAGTAAATATACATGCGATTAGTTATATATA [TGCATGCA_site720],8.73 ± 0.37
17,TTTATTCTCAAACACACACACATATATATATATATA [CACACA_site2895],9.88 ± 0.19
18,TTTTATATATATATCACACACACACCCATGTTTTAA [CACACA_site79],9.67 ± 0.38
19,TAATTAATAATAATATGTACATATTAATATATTATT [XGTACX_site6900],8.57 ± 0.38
20,TATTTATTCTCCAACACACACACATATATTTATATA [CACACA_site7376],9.43 ± 0.26
21,AGTTTGTCAATCAACACACACCTATTTATTATAGAT [CACACA_site7777],9.1 ± 0.37
22,AAAAATTATAACTAAAAAAATCACACAAAATATTTT [TGCATGCA_negctrl_site28],8.46 ± 0.39
